According to PubChem BioAssay AID493208 (National Center for Advancing Translational Sciences (NCATS), 2011):
The whole screen tested about 44,000 compounds, of which about 340 (0.77%) were called active. Not shown: some 5% with an inconclusive outcome. Calls follow the shape of the dose curve; as a rule, active = well fitted inhibition curve with a large enough effect; inconclusive = small, poorly fitted or top-dose-only effect; inactive = flat fitted curve, though single readings scatter. Some of the results follow.

Experiment: Acumen qHTS Assay for Inhibitors of the mTORC1 Signaling Pathway in MEF (Tsc2-/-, p53-/-) Cells: Sytravon; also: nearly all actives have a fitted effect of over 50% in size;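 as to activity change, negative = inhibition: plate controls were DMSO for no effect and rapamycin for full effect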
Details: phospho-rpS6 immunofluorescence/PI, 24 h; series mostly up to 38.3 µM; activity change, negative = inhibition: at the top concentration
How it was run: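 Tsc2-/-, p53-/- MEFs (empty-vector stable line) in DMEM + 10% FBS were treated with compounds 24 h at 37 degree Celsius, fixed, and immunostained for phospho-rpS6 (Alexa-488) with propidium iodide counterstain. Laser-scanning cytometry gave % positive cells, normalized against 7.5 nM rapamycin and DMSO.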
Potency is read from the fitted curve at half-maximal effect.

Row | Structure (SMILES) | activity change, negative = inhibition | Potency
1 | COc1cccc(C(=O)Nc2cc(-c3cn4cccnc4n3)ccc2C)c1OC | inactive: -0.616% | –
2 | CCOc1ccc(NC(=O)c2sc3nc4c(cc3c2N)CCCCCC4)cc1 | – | active: 20.7 µM
3 | Cc1nc2ccccn2c(=O)c1NC(=O)c1c(F)cccc1F | inactive: -4.9% | –
4 | Cc1ccc(OCC(=O)Nc2ccccc2C(=O)OCc2cc(=O)n3nc(C4CC4)sc3n2)cc1 | inactive: 1.91% | –
5 | O=C(c1cccs1)N(Cc1cccnc1)c1nc2ccc(F)cc2s1 | inactive: -2.7% | –
6 | CCn1cc(S(=O)(=O)c2ccc(OC)cc2)c(=O)c2cc(F)c(N3CCC(C)CC3)cc21 | inactive: 0.0421% | –
7 | CCCN(CCC)CCCNC(=O)C1CCC(CNS(=O)(=O)c2cccc3nsnc23)CC1 (configuration not stated) | inactive: -9.34% | –
8 | CCCCNS(=O)(=O)c1ccc2nc(-c3cccnc3)cc(C(=O)NCCC)c2c1 | inactive: 0.868% | –
9 | Oc1ccc(-c2nc3ccccn3c2Nc2ccc3c(c2)OCCO3)cc1 | inactive: -11.5% | –
10 | NCCCCCc1nnc(SCc2ccc(F)cc2)o1 | inactive: 6.67% | –
11 | COCCNC(=O)CSc1c2c(nc3cc(Cl)ccc13)CCCC2 | inactive: -9.45% | –
12 | CCCc1nn2c(=O)cc(COC(=O)c3cccc(NC(=O)CCc4ccccc4)c3)nc2s1 | inactive: 7.45% | –
13 | COCCCNC(=O)c1ccc2nc(Cc3ccc(OC)cc3)oc2c1 | inactive: 1.64% | –
14 | CCOc1ccc(CNC(=O)C2CCN(S(=O)(=O)N3CCCCC3)CC2)cc1 | inactive: 7.76% | –
15 | CC(=O)Nc1nonc1-c1nnc(SCc2ccc(F)cc2)n1C | inactive: -12.7% | –
16 | COc1ccc(NC(=O)COCc2cc(-c3ccco3)on2)cc1 | inactive: -5.11% | –
17 | CCCCSc1nnc2n(-c3cccc(C)c3)c(=O)c3c4c(sc3n12)CCCC4 | inactive: -0.48% | –
18 | Fc1ccccc1Oc1ncnc2c1oc1ccccc12 | inactive: -1.6% | –
19 | Clc1ccc(-c2csc(=Nc3ccccc3)n2Cc2ccc3c(c2)OCO3)cc1 | inactive: -5.45% | –
20 | Cc1cccc(OCc2nc(C#N)c(NCc3ccccc3Cl)o2)c1 | inactive: -12.6% | –
21 | CCOC(=O)C1CCN(C(=O)CSc2n[nH]c(-c3ccccc3)n2)CC1 | inactive: -4.54% | –
22 | Cc1ccc2nc(COc3ccc(NC(=O)COc4ccccc4F)cc3)cc(=O)n2c1 | inactive: 0% | –
23 | COc1ccc(NC(=O)CSc2nc3ccccc3[nH]2)cc1 | inactive: -5.02% | –
24 | Cc1ccc(C)c(N2CCN(C(=O)Cn3c(=O)c4cccn4c4ccc(F)cc43)CC2)c1 | inactive: -5.21% | –
25 | Cc1ccc(NC(=O)CSCn2nnc3c(=O)[nH]c(Cc4ccc(F)cc4)nc32)c(C)c1 | inactive: 6.66% | –

Row | Structure (SMILES) | activity change, negative = inhibition | Potency
26 | Cc1cccc(N2CCN(C(=O)c3ccc4c(c3)N(Cc3ccccc3F)C(=O)c3ccccc3S4=O)CC2C)c1 (configuration not stated) | inactive: -9.59% | –
27 | COc1cc2c(=O)c(C(=O)c3ccc(C)c(C)c3)cn(Cc3ccccc3)c2cc1OC | inactive: -2.19% | –
28 | Cc1cc(C)c2nc(NC(=O)c3ccc(S(=O)(=O)N4CCCC4)cc3)sc2c1 | inactive: -13.6% | –
29 | COc1ccc(-c2cc3nc(C)c(CCC(=O)N4CCN(c5ccccc5)CC4)c(C)n3n2)c(OC)c1 | inactive: -8.42% | –
30 | Cc1c(CC(=O)NCc2ccccc2)c(=O)oc2c(C)c(O)ccc12 | inactive: -16.6% | –
31 | CCOc1cc(C2C(C(=O)OC)=C(C)NC3=C2C(=O)c2ccccc23)c(Br)cc1OC (configuration not stated) | inactive: -0.348% | –
32 | CCOCCCNC(=O)Cn1nc(C)n2c(cc3cc(C)ccc32)c1=O | inactive: 2.99% | –
33 | CCCCN(CCCNC(=O)CN1N=C(c2ccccc2)CCC1=O)c1ccccc1 | inactive: 11.2% | –
34 | O=C(COc1ccccc1Cl)Nc1nc2c(s1)CCCC2 | inactive: -3.38% | –
35 | Cc1cccc(NC(=O)C2CCCN(S(=O)(=O)c3cccc4nonc34)C2)c1C (configuration not stated) | inactive: -27.8% | –
36 | Cc1cc2oc(=O)c(CC(=O)NCCc3ccccc3)c(C)c2c2occ(C(C)(C)C)c12 | inactive: -14.2% | –
37 | Cc1cc(C(=O)O)c2c(=O)n(C)c(=O)n(C)c2n1 | inactive: -1.78% | –
38 | COc1ccc(-c2cn3c(n2)sc2cc(C(=O)NC4CCCc5ccccc54)ccc23)cc1 (configuration not stated) | inactive: 13% | –
39 | COc1cc2c(cc1NC(=O)COc1cc(C)ccc1C)oc1ccccc12 | inactive: -0.791% | –
40 | CCCCN(C)CCCNC(=O)c1ccc2nc(N3CCCCC3)sc2c1 | inactive: -11.3% | –
41 | CCN(C(=O)CCc1nc(-c2ccc(C)cc2)no1)c1cc(C)ccc1C | inactive: -0.328% | –
42 | CCN(Cc1ccccc1)Cc1c(O)ccc2c(=O)c(-c3ccccc3OC)c(C(F)(F)F)oc12 | inactive: -1.29% | –
43 | Cc1cccc(OCCSc2nc3ccccc3n2CC(=O)N2CCCCC2)c1C | inactive: -0.338% | –
44 | CCOC(=O)c1ccc(N2CCN(c3cc(Cl)ccc3C)CC2)c(NC(=O)Nc2cccc(OC)c2)c1 | inactive: 8.43% | –
45 | CC(=O)Nc1nonc1-c1nnc(SCC(=O)Nc2ccc(F)cc2F)n1-c1ccccc1 | inactive: -14.6% | –
46 | Cc1c(C)n(Cc2ccccc2)c2ccc(C(=O)NC(C)c3ccccc3)cc12 (configuration not stated) | inactive: -21.2% | –
47 | Cc1ccc(Cn2c(CNS(=O)(=O)c3c(C)cc(C)cc3C)nc3cccnc32)cc1 | inactive: -24.9% | –
48 | COc1ccc(N2CC(NC(=O)/C=C\c3ccc(OC)c(OC)c3)CC2=O)cc1 (configuration not stated) | inactive: 1.54% | –
49 | CCc1ccc(-n2c(SC(CC)C(=O)N(CC)CC)nc3n[nH]c(C)c3c2=N)cc1 (configuration not stated) | inactive: -5.64% | –
50 | Cc1nc(CC(=O)Nc2ccc(C)c(C)c2)cs1 | inactive: 3.92% | –

Row | Structure (SMILES) | activity change, negative = inhibition | Potency
51 | CCOC(=O)N1CCN(S(=O)(=O)N2CCCC(C(=O)NCc3cc(OC)ccc3OC)C2)CC1 (configuration not stated) | inactive: 4.26% | –
52 | CCOCCCNC(=O)C1CCCN(Cc2nc(-c3ccc(CC)cc3)oc2C)C1 (configuration not stated) | inactive: -7.93% | –
53 | CCc1ccc(OCC(=O)N(Cc2cccs2)c2ccc(Cl)cc2)cc1 | inactive: -9.68% | –
54 | CCn1ccc2cc(S(=O)(=O)N3CCCN(C(=O)Nc4ccccc4OC)CC3)ccc21 | inactive: -4.64% | –
55 | CCc1cccc(CC)c1NC(=O)Cn1nnc2sc(-c3ccccc3)cc2c1=O | inactive: 0.896% | –
56 | COc1ccc(N2CCN(C(CNC(=O)CC(C)C)c3ccc4c(c3)OCO4)CC2)cc1 (configuration not stated) | inactive: -3.75% | –
57 | COc1ccc(-c2nc(CS(=O)CC(=O)NCc3ccc(F)cc3)c(C)o2)cc1OC (configuration not stated) | inactive: -0.0405% | –
58 | CCCCOc1ccc(C2=NC(c3ccncc3)=Nc3ccc(Br)cc3N2)cc1 | inactive: -1.82% | –
59 | COc1ccc(OCC(=O)Nc2ccc(C(=O)OCc3cc(=O)n4nc(C)sc4n3)cc2)cc1 | inactive: 4.42% | –
60 | CCOc1ccccc1N(CC)C(=O)Nc1cn(C)c(=O)c2ccccc12 | inactive: 0% | –
61 | Cc1c(Cl)cccc1-n1ncc(C(=O)N2CCc3ccccc3C2)c1C1CCN(C(=O)OC(C)(C)C)CC1 | inactive: -0.534% | –
62 | Cc1ccc(/C=C/c2onc(C)c2S(=O)(=O)N2CCC(C(=O)N3CC(C)Oc4ccccc43)CC2)cc1 (configuration not stated) | inactive: -1.95% | –
63 | CCCCCn1c(=O)[nH]c2cc(C(=O)N3CCN(c4ccccc4)CC3)ccc2c1=O | inactive: -4.55% | –
64 | COc1ccc2c(c1)cc1c(=O)n(CC(=O)NC3CCCCC3)nc(C)n12 | inactive: -2.12% | –
65 | Cc1ccc(NC(=O)c2oc3ccccc3c2NC(=O)Cc2cccs2)cc1 | inactive: 4.63% | –
66 | CCc1ccc(NC(=O)CC2C(=O)N(c3cccc(OC)c3)C(=O)N2Cc2ccco2)cc1 (configuration not stated) | inactive: -7.91% | –
67 | COc1ccccc1NC(=O)CCS(=O)(=O)c1ccc2nc(C)sc2c1 | inactive: -10.7% | –
68 | Cc1ccc(C(Nc2ccccn2)c2ccc3cccnc3c2O)cc1 (configuration not stated) | inactive: -19.1% | –
69 | COc1cc(Cl)c(NS(=O)(=O)c2ccc3c(c2)CC(C)N3C(=O)C2CCC2)c(OC)c1 (configuration not stated) | inactive: -1.9% | –
70 | CC(=O)N1CCC(N(C(=O)Nc2ccc(C)c(F)c2)C(C)C)CC1 | inactive: -0.314% | –
71 | CCc1c(C)sc2c1CCN(C(=O)Nc1ccccc1C(F)(F)F)C2c1ccccc1 (configuration not stated) | inactive: 0% | –
72 | Cc1ccccc1NC(=O)c1c(NC(=O)C(C)Oc2cccc(Cl)c2)sc2c1CCCC2 (configuration not stated) | inactive: 6.13% | –
73 | COc1cc(Cl)c(C)cc1NC(=O)CCc1c(C)nc2cc(-c3cccc(F)c3)nn2c1C | inactive: 6.7% | –
74 | O=C(CCn1cnc2onc(-c3ccc(F)cc3)c2c1=O)N1CCN(c2ccc(F)cc2)CC1 | inactive: -13% | –
75 | CCn1c(C(=O)N2CCCC(C(=O)NCCCOC)C2)cc2sccc21 (configuration not stated) | inactive: -0.421% | –

Row | Structure (SMILES) | activity change, negative = inhibition | Potency
76 | COc1ccccc1CNC(=O)CC1N=C2c3ccccc3N=C(SCC(=O)Nc3ccc(F)cc3)N2C1=O (configuration not stated) | inactive: -0.199% | –
77 | COc1ccccc1Nc1nn2c(=O)c3ccc(C(=O)N4CCC(C)CC4)cc3nc2s1 | inactive: -0.739% | –
78 | COc1ccc(S(=O)(=O)Nc2cccc(-c3ccc(N4CCOCC4)nn3)c2)cc1F | inactive: -7.93% | –
79 | COc1cc(NC(=O)c2c(-c3ccc(C)cc3)nnc3ccccc23)cc(OC)c1OC | inactive: -5.62% | –
80 | Cc1oc2c(c1C(=O)Nc1cccc(Br)c1)C1=NCCN1C=N2 | inactive: -5.2% | –
81 | O=C(c1nc(-c2ccc(Cl)cc2)n2c1CCCCC2)N1CCN(c2ccccc2F)CC1 | inactive: 3.54% | –
82 | CC(=O)c1ccc(N2C(=O)N(Cc3cccc(C(F)(F)F)c3)c3ccccc3S2(=O)=O)cc1 | inactive: -6.73% | –
83 | CC(=O)Nc1ccc(NC(=O)CCCc2nc(-c3ccc(C(C)(C)C)cc3)no2)cc1 | inactive: -2.05% | –
84 | CC1=C(C(=O)OC2CCCC2)C(c2ccc(F)cc2F)CC(=O)N1 (configuration not stated) | inactive: 1.01% | –
85 | Cc1ccc(CS(=O)(=O)c2cn(CC(=O)N(C)c3ccccc3)c3ccccc23)cc1 | inactive: 1.79% | –
86 | Cc1nc2scc(C)n2c(=O)c1S(=O)(=O)NCc1ccccc1Cl | inactive: -0.444% | –
87 | CCOc1cc(C(=O)Nc2ccc3oc(-c4ccc(F)cc4Cl)nc3c2)cc(OCC)c1OCC | inactive: -5.5% | –
88 | Cc1ccc(NC(=O)c2cc(C)nn2-c2ccccc2)cc1 | inactive: -6.55% | –
89 | COc1ccc(N(Cc2cccs2)C(=O)c2ccccc2C)cc1 | inactive: -11% | –
90 | COc1cc(C2C(=O)N(C3CCCCC3)CC(=O)N2C2CCCC2)ccc1OC(C)C (configuration not stated) | inactive: 1.4% | –
91 | O=C(CSc1nc(-c2ccc(F)cc2)cc(C(F)(F)F)n1)NCc1ccccc1 | inactive: -16.8% | –
92 | CCCCNC(=O)CCC(=O)NNc1nc2ccccc2c2nc(-c3ccccc3)nn12 | inactive: -11.3% | –
93 | Cc1cccc(C(=O)Nc2c3c(nn2-c2ccc(Cl)cc2)CS(=O)(=O)C3)c1 | inactive: -9.4% | –
94 | O=[N+]([O-])c1cc(-c2nc(-c3ccccc3)no2)ccc1NCC1CCCO1 (configuration not stated) | inactive: -0.582% | –
95 | CCOC(=O)c1ccc2c(c1)N(Cc1cccc(OC)c1)C(=O)c1ccccc1S2(=O)=O | inactive: 4.57% | –
96 | CC1CCN(c2ccc(NC(=O)c3cccc(Cl)c3)cc2C(=O)O)CC1 | inactive: -3.02% | –
97 | Cc1ccc(-c2cc(C(=O)NC(C)c3ccccc3)c3ccccc3n2)cc1C (configuration not stated) | inactive: 14.9% | –
